# This continues a long series; more values of the same kind are listed elsewhere.
# Experiment: Tissue distribution by quantitative whole-body autoradiography (QWBA)
# Assay type: in vivo, male Sprague Dawley and Long-Evans rats
# Details: 15 mg/kg IV
# Protocol: The study utilized 4 groups of male SD rats (albino), and 3 groups of male LE rats (pigmented); a total of 39 rats. All animals were obtained from Hilltop Lab Animals, Inc. (Scottdale, Pa.). […] Rats in Group 5 were administered a single 2-h IV infusion of [^14C]brincidofovir at a target dose of 2 mg/kg. […] Three dosing formulations (one for high dose IV, one for low dose IV, and one for PO dose) were prepared at QPS on the day of dosing. The IV formulation for Groups 1, 2, 3, and 4 contained a vehicle of 10 mM sodium phosphate buffer in 5% dextrose solution at pH 8.0(±0.1).
# Each animal, at their respective termination time points, was euthanized for QWBA analysis immediately after blood collection. One rat per time point per Group was euthanized as listed below.
# The blood samples were maintained on wet ice (approximately 4° C.) and then centrifuged to obtain plasma within 1 h of the blood collection time. Centrifuge settings were recorded in the study notebook. Duplicate aliquots of plasma (0.050 mL) were analyzed for radioactivity using direct counting by LSC, and residual plasma was stored at approximately −70° C. and was saved for possible future analysis under a separate study protocol. Residual red blood cells were discarded as radioactive waste.
# The pinna, distal limbs, hair, and tail were removed from each frozen carcass and each frozen carcass was embedded in an aqueous suspension of approximately 2% (w/v) carboxymethylcellulose and frozen into a block. The blocks were stored at approximately −20° C. prior to sectioning. Each blocked carcass was mounted on the object stage of a cryomicrotome (Leica CM3600 Cryomacrocut, Nussloch, Germany and Vibratome 9800, St. Louis, Mo.) maintained at approximately −20° C. and internal standards (3), which were plasma fortified with [^14C]-glucose at one concentration (approximately 0.05 μCi/mL), were placed into the frozen blocks, prior to sectioning, and were used for section thickness quality control. A number of whole-body sections (approximately 40 μm thick) were taken in the sagittal plane at various levels of interest using a whole-body cryomicrotome set at −20° C. Sagittal sections (20-50 μm thick) of frozen carcasses were exposed to phosphor imaging plates. Regions of images in tissues were converted to concentrations using standards. All of the major tissues, organs, and biological fluids were represented.
# Tissue concentration data was determined for the following tissues and/or contents: adipose (brown and white), adrenal gland, bile (in duct), blood (cardiac), bone, bone marrow, brain (cerebrum, cerebellum, medulla), cecum (and contents), large intestine (and contents), epididymis, esophagus, eye (uvea and lens), Harderian gland, heart, kidney (cortex and medulla), liver, lung, lymph node, pancreas, pituitary gland, prostate gland, salivary gland, seminal vesicles, skeletal muscle, skin (pigmented and non-pigmented), small intestine (and contents), stomach (gastric mucosa and contents), spleen, spinal cord, testis, thymus, thyroid, and urinary bladder (and contents).
# The imaging plate and sections were placed in light-tight exposure cassettes, in a copper-lined lead safe, for a 4-day exposure at room temperature. […] Quantification was performed by image densitometry using MCD image analysis software (v. 7.0, Interfocus Imaging Ltd) and a standard curve constructed from the integrated response [i.e., Molecular Dynamics Counts per square millimeter (MDC/mm^2)] and the nominal concentrations of the ^14C-calibration standards. The concentrations of radioactivity were expressed as the μg equivalents of [^14C]brincidofovir per gram sample (μg equiv/g). A lower limit of quantification (LLOQ) was applied to the data (See section 6.7.4).
# Tissue concentrations that fell below the LLOQ were identified as being below the quantification limit (BQL). Tissue areas that were not visualized on autoradiographic images were identified as no sample (NS) and reported as BQL.
smiles,measurement,setting,value
CCCCCCCCCCCCCCCCOCCCOP(=O)(O)CO[C@H](CO)Cn1ccc(N)nc1=O [[^14C]brincidofovir],Concentration of radioactivity,"Epididymis, 1 h, LE rat",0.828 μg equiv/g tissue
same,Concentration of radioactivity,"Epididymis, 2 h, LE rat",1.654 μg equiv/g tissue
same,Concentration of radioactivity,"Epididymis, 4 h, LE rat",1.795 μg equiv/g tissue
same,Concentration of radioactivity,"Epididymis, 8 h, LE rat",0.821 μg equiv/g tissue
same,Concentration of radioactivity,"Epididymis, 24 h, LE rat",0.362 μg equiv/g tissue
same,Concentration of radioactivity,"Epididymis, 72 h, LE rat",0.243 μg equiv/g tissue
same,Concentration of radioactivity,"Epididymis, 96 h, LE rat",0.204 μg equiv/g tissue
same,Concentration of radioactivity,"Epididymis, 168 h, LE rat",0.129 μg equiv/g tissue
same,Concentration of radioactivity,"Epididymis, 840 h, LE rat",BQL (BQL = Value is below the LLOQ)
same,Concentration of radioactivity,"Esophagus, 1 h, LE rat",1.750 μg equiv/g tissue
same,Concentration of radioactivity,"Esophagus, 2 h, LE rat",2.456 μg equiv/g tissue
same,Concentration of radioactivity,"Esophagus, 2 h, SD rat",3.567 μg equiv./g
same,Concentration of radioactivity,"Esophagus, 4 h, LE rat",1.803 μg equiv/g tissue
same,Concentration of radioactivity,"Esophagus, 8 h, LE rat",1.747 μg equiv/g tissue
same,Concentration of radioactivity,"Esophagus, 24 h, LE rat",0.377 μg equiv/g tissue
same,Concentration of radioactivity,"Esophagus, 24 h, SD rat",0.572 μg equiv./g
same,Concentration of radioactivity,"Esophagus, 72 h, LE rat",0.357 μg equiv/g tissue
same,Concentration of radioactivity,"Esophagus, 96 h, LE rat",0.098 μg equiv/g tissue
same,Concentration of radioactivity,"Esophagus, 168 h, LE rat",0.041 μg equiv/g tissue
same,Concentration of radioactivity,"Esophagus, 168 h, SD rat",0.043 μg equiv./g
same,Concentration of radioactivity,"Esophagus, 840 h, LE rat",BQL (BQL = Value is below the LLOQ)
same,Concentration of radioactivity,"Eye (lens), 1 h, LE rat",0.039 μg equiv/g tissue
same,Concentration of radioactivity,"Eye (lens), 2 h, LE rat",0.077 μg equiv/g tissue
same,Concentration of radioactivity,"Eye (lens), 2 h, SD rat",BQL (BQL = Value is below the LLOQ)
same,Concentration of radioactivity,"Eye (lens), 4 h, LE rat",BQL (BQL = Value is below the LLOQ)
same,Concentration of radioactivity,"Eye (lens), 8 h, LE rat",BQL (BQL = Value is below the LLOQ)
same,Concentration of radioactivity,"Eye (lens), 24 h, LE rat",BQL (BQL = Value is below the LLOQ)
same,Concentration of radioactivity,"Eye (lens), 24 h, SD rat",BQL (BQL = Value is below the LLOQ)
same,Concentration of radioactivity,"Eye (lens), 72 h, LE rat",BQL (BQL = Value is below the LLOQ)
same,Concentration of radioactivity,"Eye (lens), 96 h, LE rat",BQL (BQL = Value is below the LLOQ)
same,Concentration of radioactivity,"Eye (lens), 168 h, LE rat",BQL (BQL = Value is below the LLOQ)
same,Concentration of radioactivity,"Eye (lens), 168 h, SD rat",BQL (BQL = Value is below the LLOQ)
same,Concentration of radioactivity,"Eye (lens), 840 h, LE rat",BQL (BQL = Value is below the LLOQ)
same,Concentration of radioactivity,"Eye (uveal tract), 1 h, LE rat",0.875 μg equiv/g tissue
same,Concentration of radioactivity,"Eye (uveal tract), 2 h, LE rat",1.411 μg equiv/g tissue
same,Concentration of radioactivity,"Eye (uveal tract), 2 h, SD rat",2.342 μg equiv./g
same,Concentration of radioactivity,"Eye (uveal tract), 4 h, LE rat",1.412 μg equiv/g tissue
same,Concentration of radioactivity,"Eye (uveal tract), 8 h, LE rat",0.925 μg equiv/g tissue
same,Concentration of radioactivity,"Eye (uveal tract), 24 h, LE rat",0.452 μg equiv/g tissue
same,Concentration of radioactivity,"Eye (uveal tract), 24 h, SD rat",0.469 μg equiv./g
same,Concentration of radioactivity,"Eye (uveal tract), 72 h, LE rat",0.322 μg equiv/g tissue
same,Concentration of radioactivity,"Eye (uveal tract), 96 h, LE rat",0.188 μg equiv/g tissue
same,Concentration of radioactivity,"Eye (uveal tract), 168 h, LE rat",BQL (BQL = Value is below the LLOQ)
same,Concentration of radioactivity,"Eye (uveal tract), 168 h, SD rat",0.095 μg equiv./g
same,Concentration of radioactivity,"Eye (uveal tract), 840 h, LE rat",BQL (BQL = Value is below the LLOQ)
same,Concentration of radioactivity,"Harderian Gland, 1 h, LE rat",0.897 μg equiv/g tissue
same,Concentration of radioactivity,"Harderian Gland, 2 h, LE rat",2.049 μg equiv/g tissue
same,Concentration of radioactivity,"Harderian Gland, 4 h, LE rat",1.476 μg equiv/g tissue
same,Concentration of radioactivity,"Harderian Gland, 8 h, LE rat",1.284 μg equiv/g tissue
same,Concentration of radioactivity,"Harderian Gland, 24 h, LE rat",0.665 μg equiv/g tissue
same,Concentration of radioactivity,"Harderian Gland, 72 h, LE rat",1.098 μg equiv/g tissue
same,Concentration of radioactivity,"Harderian Gland, 96 h, LE rat",0.536 μg equiv/g tissue
same,Concentration of radioactivity,"Harderian Gland, 168 h, LE rat",0.403 μg equiv/g tissue
same,Concentration of radioactivity,"Harderian Gland, 840 h, LE rat",BQL (BQL = Value is below the LLOQ)
same,Concentration of radioactivity,"Heart, 1 h, LE rat",1.190 μg equiv/g tissue
same,Concentration of radioactivity,"Heart, 2 h, LE rat",2.401 μg equiv/g tissue
same,Concentration of radioactivity,"Heart, 4 h, LE rat",0.997 μg equiv/g tissue
same,Concentration of radioactivity,"Heart, 8 h, LE rat",0.815 μg equiv/g tissue
same,Concentration of radioactivity,"Heart, 24 h, LE rat",0.226 μg equiv/g tissue
same,Concentration of radioactivity,"Heart, 72 h, LE rat",0.173 μg equiv/g tissue
same,Concentration of radioactivity,"Heart, 96 h, LE rat",0.118 μg equiv/g tissue
same,Concentration of radioactivity,"Heart, 168 h, LE rat",0.062 μg equiv/g tissue
same,Concentration of radioactivity,"Heart, 840 h, LE rat",BQL (BQL = Value is below the LLOQ)
same,Concentration of radioactivity,"Kidney Cortex, 1 h, LE rat",36.713 μg equiv/g tissue
same,Concentration of radioactivity,"Kidney Cortex, 2 h, LE rat",97.276 μg equiv/g tissue
same,Concentration of radioactivity,"Kidney Cortex, 4 h, LE rat",76.678 μg equiv/g tissue
same,Concentration of radioactivity,"Kidney Cortex, 8 h, LE rat",56.528 μg equiv/g tissue
same,Concentration of radioactivity,"Kidney Cortex, 24 h, LE rat",19.453 μg equiv/g tissue
same,Concentration of radioactivity,"Kidney Cortex, 72 h, LE rat",4.070 μg equiv/g tissue
same,Concentration of radioactivity,"Kidney Cortex, 96 h, LE rat",1.041 μg equiv/g tissue
same,Concentration of radioactivity,"Kidney Cortex, 168 h, LE rat",0.330 μg equiv/g tissue
same,Concentration of radioactivity,"Kidney Cortex, 840 h, LE rat",BQL (BQL = Value is below the LLOQ)
same,Concentration of radioactivity,"Kidney Medulla, 1 h, LE rat",8.092 μg equiv/g tissue
same,Concentration of radioactivity,"Kidney Medulla, 2 h, LE rat",26.987 μg equiv/g tissue
same,Concentration of radioactivity,"Kidney Medulla, 4 h, LE rat",25.330 μg equiv/g tissue
same,Concentration of radioactivity,"Kidney Medulla, 8 h, LE rat",22.989 μg equiv/g tissue
same,Concentration of radioactivity,"Kidney Medulla, 24 h, LE rat",7.117 μg equiv/g tissue
same,Concentration of radioactivity,"Kidney Medulla, 72 h, LE rat",1.478 μg equiv/g tissue
same,Concentration of radioactivity,"Kidney Medulla, 96 h, LE rat",0.648 μg equiv/g tissue
same,Concentration of radioactivity,"Kidney Medulla, 168 h, LE rat",0.138 μg equiv/g tissue
same,Concentration of radioactivity,"Kidney Medulla, 840 h, LE rat",BQL (BQL = Value is below the LLOQ)
same,Concentration of radioactivity,"Large Intestine (contents), 1 h, LE rat",BQL (BQL = Value is below the LLOQ)
same,Concentration of radioactivity,"Large Intestine (contents), 2 h, LE rat",2.223 μg equiv/g tissue
same,Concentration of radioactivity,"Large Intestine (contents), 2 h, SD rat",BQL (BQL = Value is below the LLOQ)
same,Concentration of radioactivity,"Large Intestine (contents), 4 h, LE rat",137.870 μg equiv/g tissue
same,Concentration of radioactivity,"Large Intestine (contents), 8 h, LE rat",235.751 μg equiv/g tissue
same,Concentration of radioactivity,"Large Intestine (contents), 24 h, LE rat",48.798 μg equiv/g tissue
same,Concentration of radioactivity,"Large Intestine (contents), 24 h, SD rat",35.809 μg equiv./g
same,Concentration of radioactivity,"Large Intestine (contents), 72 h, LE rat",3.347 μg equiv/g tissue
same,Concentration of radioactivity,"Large Intestine (contents), 96 h, LE rat",0.273 μg equiv/g tissue
same,Concentration of radioactivity,"Large Intestine (contents), 168 h, LE rat",0.103 μg equiv/g tissue
same,Concentration of radioactivity,"Large Intestine (contents), 168 h, SD rat",0.374 μg equiv./g
same,Concentration of radioactivity,"Large Intestine (contents), 840 h, LE rat",BQL (BQL = Value is below the LLOQ)
same,Concentration of radioactivity,"Large Intestine, 1 h, LE rat",1.455 μg equiv/g tissue
same,Concentration of radioactivity,"Large Intestine, 2 h, LE rat",5.497 μg equiv/g tissue
same,Concentration of radioactivity,"Large Intestine, 2 h, SD rat",3.581 μg equiv./g
same,Concentration of radioactivity,"Large Intestine, 4 h, LE rat",2.338 μg equiv/g tissue
same,Concentration of radioactivity,"Large Intestine, 8 h, LE rat",3.071 μg equiv/g tissue
same,Concentration of radioactivity,"Large Intestine, 24 h, LE rat",3.064 μg equiv/g tissue
same,Concentration of radioactivity,"Large Intestine, 24 h, SD rat",2.019 μg equiv./g
same,Concentration of radioactivity,"Large Intestine, 72 h, LE rat",0.993 μg equiv/g tissue
same,Concentration of radioactivity,"Large Intestine, 96 h, LE rat",0.545 μg equiv/g tissue
same,Concentration of radioactivity,"Large Intestine, 168 h, LE rat",0.278 μg equiv/g tissue
same,Concentration of radioactivity,"Large Intestine, 168 h, SD rat",0.129 μg equiv./g
same,Concentration of radioactivity,"Large Intestine, 840 h, LE rat",BQL (BQL = Value is below the LLOQ)
same,Concentration of radioactivity,"Liver, 1 h, LE rat",126.516 μg equiv/g tissue
same,Concentration of radioactivity,"Liver, 2 h, LE rat",229.669 μg equiv/g tissue
same,Concentration of radioactivity,"Liver, 4 h, LE rat",118.543 μg equiv/g tissue
same,Concentration of radioactivity,"Liver, 8 h, LE rat",53.166 μg equiv/g tissue

# From US20170368082A1, “FORMULATIONS OF BRINCIDOFOVIR” (priority 2016, published 2017)
